How the values were obtained:
Assay in all cases: In vivo efficacy, PDX tumor growth
Design in all cases: species or system human tumor in NOD/SCID mice
[1] = tested on: small cell lung cancer-86 (LU86) PDX
Source text: (§1) The effects of anti-PTK7 antibody-drug conjugates were further evaluated on the in vivo growth of human tumor patient-derived xenografts (PDX). Primary tumor resection samples were procured from clinical sites following Institutional Review Board for the Protection of Human Subjects approval and in accordance with HIPAA regulations. Tumor fragments were stored and shipped in Hypothermasol (Biolife Solutions) on ice and were embedded in Matrigel (BD) containing a proprietary mix of growth factors and implanted subcutaneously into the mammary fatpad of female NOD/SCID mice within 24 hours of resection. Mice were monitored for health status daily and for tumor growth initially by visual inspection twice per week. Once the tumors were palpable, measurements of tumor volume began to track tumor growth and estimate cell doubling time. Tumor volume was estimated using the equation V=(A*B^2)/2 where A is the long axis and B is the short axis. When tumors reached a volume of 500 mm^3 to 1,500 mm^3, they were harvested for study and for re-transplant as a patient-derived xenograft (PDX). Depending on the line, mechanical and/or chemical dissociation can be used to separate the individual cells for passage. Live cells were inoculated into naïve animals with 10,000 to 50,000 cells per animals
(§2) For efficacy studies, tumors were harvested from passaging studies and cells were dissociated into single cell suspension. Preparations were counted for live cells using Trypan blue exclusion and 10,000 to 50,000 cells were inoculated per mouse in Matrigel. […] Tumor growth was initially followed by palpability with measurements beginning once tumor volumes reached about 30 mm^3. Studies were randomized based on tumor size once a cohort of tumor-bearing mice reached 140 mm^3 to 180 mm^3. Animals were dosed by intraperitoneal injection twice a week for two weeks (q4dx4). Study groups were followed until individual mice or entire group tumor measurements reached 1200 mm^3 when sacrifice was indicated in accordance with IACUC protocol. For selected dosing studies, pharmacokinetic submandibular bleeds were performed at 2 hours, 36 hours and 72 hours. A volume of 10 μL of blood was immediately pipetted into 90 μL of HBS-P (GE Healthcare). Samples were stored at −80° C. prior to analysis. For each tumor measurement the tumor volume±standard error of the mean (SEM) is provided. GT=Group Terminated due to large tumor size.

ovarian-55 (OV55) PDX = details: for tumor volume ± SEM: 3 mg/kg
Source text: as §1, §2

melanoma-23 (SK23) PDX = tested on: melanoma-23 (SK23) PDX
Source text: as §1, §2

[2] = tested on: Breast-22 (BR22) TNBC PDX
Source text: as §1, §2
Animals were dosed every four days for four cycles (Q4Dx4) by intraperitoneal injection except the BR5 study which was by intravenous injection on the same schedule. Tumor measurements were recorded one or two times per week using digital calipers and tumor volume was estimated using the equation V=(A×B^2)/2 where A is the long axis and B is the short axis. Animal body weights were measured and recorded at least once a week. Study groups were followed until individual mice or entire group tumor measurements reached 1200 mm^3 at which point sacrifice was indicated in accordance with IACUC protocol. For the BR5 study, animals were sacrificed once tumor volume approached 15% of the body weight at staging in accordance with IACUC protocol.
Tumor growth inhibition (TGI) was calculated using the equation % TGI=[1−(mean tumor volume of treated)/(mean tumor volume of vehicle)]. […] Tumor regression was defined as a reduction in mean tumor volume after dosing. In cases where tumors regressed, Time To Progression (TTP) indicates the number of days between the first does and the time at which mean tumor volume increased from the previous measurement to a statistically significant degree.

B1: hu24-vc0101: hu24 conjugated through cysteines to vc0101 linker-payload; average DAR approximately 4 (conjugate)
heavy: QVQLVQSGPEVKKPGASVKVSCKASGYTFTDYAVHWVRQAPGKRLEWIGVISTYNDYTYNNQDFKGRVTMTRDTSASTAYMELSRLRSEDTAVYYCARGNSYFYALDYWGQGTSVTVSS[letters of human IgG1 constant region omitted]
light: EIVLTQSPATLSLSPGERATLSCRASESVDSYGKSFMHWYQQKPGQAPRLLIYRASNLESGIPARFSGSGSGTDFTLTISSLEPEDFAVYYCQQSNEDPWTFGGGTKLEIKRTVAAPSVFIFPPSDEQLKSGTASVVCLLNNFYPREAKVQWKVDNALQSGNSQESVTEQDSKDSTYSLSSTLTLSKADYEKHKVYACEVTHQGLSSPVTKSFNRGEC
B1 was tested, and the “tumor volume ± SEM” value ([1]; 0.3 mg/kg, Day 0, Table 30) was 145 ± 11 mm^3, the “tumor volume ± SEM” value ([1]; 0.3 mg/kg, Day 7, Table 30) was 362 ± 39 mm^3 and the “tumor volume ± SEM” value ([1]; 0.3 mg/kg, Day 14, Table 30) was 758 ± 62 mm^3. The “tumor volume ± SEM” value ([1]; 0.3 mg/kg, Day 21, Table 30) was 1441 ± 97 mm^3, the “tumor volume ± SEM” value ([1]; 1 mg/kg, Day 0) was 143 ± 12 mm^3 and the “tumor volume ± SEM” value ([1]; 1 mg/kg, Day 7) was 282 ± 46 mm^3. For the same molecule, the “tumor volume ± SEM” value ([1]; 1 mg/kg, Day 14) was 363 ± 77 mm^3, the “tumor volume ± SEM” value ([1]; 1 mg/kg, Day 21) was 420 ± 115 mm^3 and the “tumor volume ± SEM” value ([1]; 1 mg/kg, Day 28) was 621 ± 159 mm^3. For the same molecule, the “tumor volume ± SEM” value ([1]; 1 mg/kg, Day 35) was 784 ± 141 mm^3, the “tumor volume ± SEM” value ([1]; 1 mg/kg, Day 42) was 915 ± 105 mm^3 and the “tumor volume ± SEM” value ([1]; 3 mg/kg, Day 0) was 141 ± 11 mm^3. The “tumor volume ± SEM” value ([1]; 3 mg/kg, Day 7) was 194 ± 24 mm^3, the “tumor volume ± SEM” value ([1]; 3 mg/kg, Day 14) was 56 ± 11 mm^3 and the “tumor volume ± SEM” value ([1]; 3 mg/kg, Day 21) was 5 ± 4 mm^3. The “tumor volume ± SEM” value ([1]; 3 mg/kg, Day 28) was 0 ± 0 mm^3, the “tumor volume ± SEM” value ([1]; 3 mg/kg, Day 35) was 0 ± 0 mm^3 and the “tumor volume ± SEM” value ([1]; 3 mg/kg, Day 42) was 0 ± 0 mm^3. For the same molecule, the “tumor volume ± SEM” value ([1]; 3 mg/kg, Day 49) was 0 ± 0 mm^3, the “tumor volume ± SEM” value ([1]; 3 mg/kg, Day 56) was 0 ± 0 mm^3 and the “tumor volume ± SEM” value ([1]; 3 mg/kg, Day 63) was 17 ± 17 mm^3. The “tumor volume ± SEM” value ([1]; 3 mg/kg, Day 70) was 73 ± 45 mm^3, the “tumor volume ± SEM” value ([1]; 3 mg/kg, Day 77) was 121 ± 67 mm^3 and the “tumor volume ± SEM” value ([1]; 3 mg/kg, Day 84) was 204 ± 90 mm^3. The “tumor volume ± SEM” value ([1]; 3 mg/kg, Day 91) was 477 ± 272 mm^3, the “tumor volume ± SEM” value ([1]; 3 mg/kg, Day 98) was 570 ± 270 mm^3 and the “tumor volume ± SEM” value ([1]; 3 mg/kg, Day 105) was 689 ± 281 mm^3. For the same molecule, the “tumor volume ± SEM” value (ovarian-55 (OV55) PDX; Day 0) was 166 ± 8 mm^3, the “tumor volume ± SEM” value (ovarian-55 (OV55) PDX; Day 14) was 33 ± 6 mm^3 and the “tumor volume ± SEM” value (ovarian-55 (OV55) PDX; Day 35) was 0 ± 0 mm^3. The “tumor volume ± SEM” value (ovarian-55 (OV55) PDX; Day 42) was 0 ± 0 mm^3, the “tumor volume ± SEM” value (ovarian-55 (OV55) PDX; Day 49) was 0 ± 0 mm^3 and the “tumor volume ± SEM” value (ovarian-55 (OV55) PDX; Day 77) was 0 ± 0 mm^3. For the same molecule, the “tumor volume ± SEM” value (ovarian-55 (OV55) PDX; Day 84) was 0 ± 0 mm^3, the “tumor volume ± SEM” value (ovarian-55 (OV55) PDX; Day 133) was 0 ± 0 mm^3 and the “tumor volume ± SEM” value (ovarian-55 (OV55) PDX; Day 168) was 0 ± 0 mm^3. For the same molecule, the “tumor volume ± SEM” value (ovarian-55 (OV55) PDX; Day 182) was 0 ± 0 mm^3, the “tumor status at end of experiment” value (ovarian-55 (OV55) PDX; OV55 PDX model) was “tumor free when the experiment was terminated” and the “tumor volume ± SEM” value (melanoma-23 (SK23) PDX; 2 mg/kg, Day 0) was 187 ± 11 mm^3. For the same molecule, the “tumor volume ± SEM” value (melanoma-23 (SK23) PDX; 2 mg/kg, Day 7) was 432 ± 28 mm^3, the “tumor volume ± SEM” value (melanoma-23 (SK23) PDX; 2 mg/kg, Day 14) was 456 ± 36 mm^3 and the “tumor volume ± SEM” value (melanoma-23 (SK23) PDX; 2 mg/kg, Day 21) was 509 ± 51 mm^3. For the same molecule, the “tumor volume ± SEM” value (melanoma-23 (SK23) PDX; 2 mg/kg, Day 28) was 679 ± 65 mm^3, the “tumor volume ± SEM” value (melanoma-23 (SK23) PDX; 2 mg/kg, Day 35) was 793 ± 65 mm^3 and the “tumor volume ± SEM” value (melanoma-23 (SK23) PDX; 2 mg/kg, Day 42) was 868 ± 63 mm^3. For the same molecule, the “tumor volume ± SEM” value (melanoma-23 (SK23) PDX; 4 mg/kg, Day 0) was 196 ± 17 mm^3, the “tumor volume ± SEM” value (melanoma-23 (SK23) PDX; 4 mg/kg, Day 7) was 356 ± 45 mm^3 and the “tumor volume ± SEM” value (melanoma-23 (SK23) PDX; 4 mg/kg, Day 14) was 227 ± 45 mm^3. For the same molecule, the “tumor volume ± SEM” value (melanoma-23 (SK23) PDX; 4 mg/kg, Day 21) was 150 ± 33 mm^3, the “tumor volume ± SEM” value (melanoma-23 (SK23) PDX; 4 mg/kg, Day 28) was 135 ± 41 mm^3 and the “tumor volume ± SEM” value (melanoma-23 (SK23) PDX; 4 mg/kg, Day 35) was 166 ± 58 mm^3. For the same molecule, the “tumor volume ± SEM” value (melanoma-23 (SK23) PDX; 4 mg/kg, Day 42) was 178 ± 62 mm^3, the “tumor volume ± SEM” value (melanoma-23 (SK23) PDX; 4 mg/kg, Day 49) was 228 ± 81 mm^3 and the “tumor volume ± SEM” value (melanoma-23 (SK23) PDX; 4 mg/kg, Day 56) was 250 ± 93 mm^3. For the same molecule, the “tumor volume ± SEM” value (melanoma-23 (SK23) PDX; 4 mg/kg, Day 63) was 295 ± 103 mm^3, the “tumor volume ± SEM” value (melanoma-23 (SK23) PDX; 4 mg/kg, Day 70) was 398 ± 130 mm^3 and the “tumor volume ± SEM” value (melanoma-23 (SK23) PDX; 4 mg/kg, Day 77) was 568 ± 181 mm^3. For the same molecule, the “tumor volume ± SEM” value (melanoma-23 (SK23) PDX; 4 mg/kg, Day 84) was 688 ± 167 mm^3, the “Regression (TTP, Days) or % TGI” value ([2]; 0.3 mg/kg, Q4Dx4 ip) was “None” and the “tumor volume ± SEM” value ([2]; 1 mg/kg, Day 0) was 172 ± 22 mm^3. The “tumor volume ± SEM” value ([2]; 1 mg/kg, Day 7) was 245 ± 28 mm^3, the “tumor volume ± SEM” value ([2]; 1 mg/kg, Day 14) was 157 ± 48 mm^3 and the “tumor volume ± SEM” value ([2]; 1 mg/kg, Day 21) was 213 ± 97 mm^3. For the same molecule, the “tumor volume ± SEM” value ([2]; 1 mg/kg, Day 28) was 266 ± 114 mm^3, the “tumor volume ± SEM” value ([2]; 1 mg/kg, Day 35) was 357 ± 156 mm^3 and the “tumor volume ± SEM” value ([2]; 1 mg/kg, Day 42) was 758 ± 225 mm^3. The “tumor volume ± SEM” value ([2]; 1 mg/kg, Day 49) was 912 ± 203 mm^3, the “Regression (TTP, Days)” value ([2]; 1 mg/kg, Q4Dx4 ip) was “Regression (21) Days” and the “tumor volume ± SEM” value ([2]; 3 mg/kg, Day 0) was 170 ± 19 mm^3. The “tumor volume ± SEM” value ([2]; 3 mg/kg, Day 7) was 89 ± 22 mm^3, the “tumor volume ± SEM” value ([2]; 3 mg/kg, Day 14) was 21 ± 5 mm^3 and the “tumor volume ± SEM” value ([2]; 3 mg/kg, Day 21) was 0 ± 0 mm^3. The “tumor volume ± SEM” value ([2]; 3 mg/kg, Day 28) was 0 ± 0 mm^3, the “tumor volume ± SEM” value ([2]; 3 mg/kg, Day 35) was 0 ± 0 mm^3 and the “tumor volume ± SEM” value ([2]; 3 mg/kg, Day 42) was 0 ± 0 mm^3. The “tumor volume ± SEM” value ([2]; 3 mg/kg, Day 49) was 0 ± 0 mm^3, the “tumor volume ± SEM” value ([2]; 3 mg/kg, Day 56) was 0 ± 0 mm^3 and the “tumor volume ± SEM” value ([2]; 3 mg/kg, Day 63) was 0 ± 0 mm^3. For the same molecule, the “tumor volume ± SEM” value ([2]; 3 mg/kg, Day 70) was 0 ± 0 mm^3, the “tumor volume ± SEM” value ([2]; 3 mg/kg, Day 77) was 0 ± 0 mm^3 and the “tumor volume ± SEM” value ([2]; 3 mg/kg, Day 84) was 0 ± 0 mm^3. For the same molecule, the “tumor volume ± SEM” value ([2]; 3 mg/kg, Day 91) was 0 ± 0 mm^3, the “tumor volume ± SEM” value ([2]; 3 mg/kg, Day 98) was 0 ± 0 mm^3 and the “tumor volume ± SEM” value ([2]; 3 mg/kg, Day 105) was 0 ± 0 mm^3. For the same molecule, the “tumor volume ± SEM” value ([2]; 3 mg/kg, Day 112) was 0 ± 0 mm^3, the “tumor volume ± SEM” value ([2]; 3 mg/kg, Day 119) was 0 ± 0 mm^3 and the “tumor volume ± SEM” value ([2]; 3 mg/kg, Day 126) was 0 ± 0 mm^3. For the same molecule, the “tumor volume ± SEM” value ([2]; 3 mg/kg, Day 133) was 0 ± 0 mm^3, the “tumor volume ± SEM” value ([2]; 3 mg/kg, Day 140) was 0 ± 0 mm^3 and the “tumor volume ± SEM” value ([2]; 3 mg/kg, Day 147) was 0 ± 0 mm^3. The “tumor volume ± SEM” value ([2]; 3 mg/kg, Day 154) was 0 ± 0 mm^3, the “tumor volume ± SEM” value ([2]; 3 mg/kg, Day 161) was 0 ± 0 mm^3 and the “Regression (TTP, Days)” value ([2]; 3 mg/kg, Q4Dx4 ip) was “Regression (205) Days”.

— patent US9777070B2, “Anti-PTK7 antibody-drug conjugates” (Pfizer Inc., priority 2014, dated 2017)
